# Test results: the supplement of paper PMC8728848
# Some of the results follow.
# Tests used:
# Test in all cases: glycan array binding signal (z-score within array); higher = stronger binding
# Settings in all cases: glycan notation: IUPAC condensed, linker removed
# [1] = target: Fuc(a1-2)Gal6S(b1-3)GlcNAc6S
# Procedure, shortened: (§1)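 From the Consortium for Functional Glycomics database, 3228 arrays were curated, keeping only those whose protein sequence was available. Binding is given as a within-array Z-score averaged across arrays sharing a protein sequence and across linkers. Negative Z-scores can be read as non-binding.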
# Fuc(a1-2)Gal6S(b1-4)Glc = target: Fuc(a1-2)Gal6S(b1-4)Glc
# Procedure, shortened: as §1
# [2] = target: Fuc(a1-2)Gal6S(b1-4)Glc6S
# Procedure, shortened: as §1
# Fuc(a1-2)[Gal(a1-3)]Gal = target: Fuc(a1-2)[Gal(a1-3)]Gal
# Procedure, shortened: as §1
# [3] = target: Fuc(a1-2)[Gal(a1-3)]Gal(b1-3)GalNAc
# Procedure, shortened: as §1
# [4] = target: Fuc(a1-2)[Gal(a1-3)]Gal(b1-3)GalNAc(b1-3)Gal(a1-4)Gal(b1-4)Glc
# Procedure, shortened: as §1
# [5] = target: Fuc(a1-2)[Gal(a1-3)]Gal(b1-3)GlcNAc
# Procedure, shortened: as §1
# [6] = target: Fuc(a1-2)[Gal(a1-3)]Gal(b1-3)GlcNAc(b1-2)Man(a1-3)[Fuc(a1-2)[Gal(a1-3)]Gal(b1-3)GlcNAc(b1-2)Man(a1-6)]Man(b1-4)GlcNAc(b1-4)GlcNAc
# Procedure, shortened: as §1
# [7] = target: Fuc(a1-2)[Gal(a1-3)]Gal(b1-3)GlcNAc(b1-2)Man(a1-3)[Fuc(a1-2)[Gal(a1-3)]Gal(b1-3)GlcNAc(b1-2)Man(a1-6)]Man(b1-4)GlcNAc(b1-4)[Fuc(a1-6)]GlcNAc
# Procedure, shortened: as §1
# [8] = target: Fuc(a1-2)[Gal(a1-3)]Gal(b1-3)GlcNAc(b1-3)GalNAc
# Procedure, shortened: as §1
# [9] = target: Fuc(a1-2)[Gal(a1-3)]Gal(b1-3)GlcNAc(b1-6)GalNAc
# Procedure, shortened: as §1
# [10] = target: Fuc(a1-2)[Gal(a1-3)]Gal(b1-4)Glc
# Procedure, shortened: as §1
# [11] = target: Fuc(a1-2)[Gal(a1-3)]Gal(b1-4)GlcNAc
# Procedure, shortened: as §1
# [12] = target: Fuc(a1-2)[Gal(a1-3)]Gal(b1-4)GlcNAc(b1-2)Man
# Procedure, shortened: as §1
# [13] = target: Fuc(a1-2)[Gal(a1-3)]Gal(b1-4)GlcNAc(b1-2)Man(a1-3)[Fuc(a1-2)[Gal(a1-3)]Gal(b1-4)GlcNAc(b1-2)Man(a1-6)]Man(b1-4)GlcNAc(b1-4)GlcNAc
# Procedure, shortened: as §1
# [14] = target: Fuc(a1-2)[Gal(a1-3)]Gal(b1-4)GlcNAc(b1-2)Man(a1-3)[Fuc(a1-2)[Gal(a1-3)]Gal(b1-4)GlcNAc(b1-2)Man(a1-6)]Man(b1-4)GlcNAc(b1-4)[Fuc(a1-6)]GlcNAc
# Procedure, shortened: as §1
# [15] = target: Fuc(a1-2)[Gal(a1-3)]Gal(b1-4)GlcNAc(b1-3)GalNAc
# Procedure, shortened: as §1
# [16] = target: Fuc(a1-2)[Gal(a1-3)]Gal(b1-4)GlcNAc(b1-3)[Fuc(a1-2)[Gal(a1-3)]Gal(b1-4)GlcNAc(b1-6)]GalNAc
# Procedure, shortened: as §1
# [17] = target: Fuc(a1-2)[Gal(a1-3)]Gal(b1-4)GlcNAc(b1-6)GalNAc
# Procedure, shortened: as §1
# [18] = target: Fuc(a1-2)[Gal(a1-3)]Gal(b1-4)[Fuc(a1-3)]Glc
# Procedure, shortened: as §1
# [19] = target: Fuc(a1-2)[Gal(a1-3)]Gal(b1-4)[Fuc(a1-3)]GlcNAc
# Procedure, shortened: as §1
# [20] = target: Fuc(a1-2)[Gal(a1-3)]Gal(b1-4)[Fuc(a1-3)]GlcNAc(b1-3)GalNAc
# Procedure, shortened: as §1
# [21] = target: Fuc(a1-2)[Gal(a1-4)]Gal(b1-4)GlcNAc
# Procedure, shortened: as §1
# [22] = target: Fuc(a1-2)[GalNAc(a1-3)]Gal
# Procedure, shortened: as §1
# [23] = target: Fuc(a1-2)[GalNAc(a1-3)]Gal(b1-3)GalNAc(a1-3)[Fuc(a1-2)]Gal(b1-4)GlcNAc
# Procedure, shortened: as §1
# [24] = target: Fuc(a1-2)[GalNAc(a1-3)]Gal(b1-3)GalNAc(b1-3)Gal(a1-4)Gal(b1-4)Glc
# Procedure, shortened: as §1
# [25] = target: Fuc(a1-2)[GalNAc(a1-3)]Gal(b1-3)GlcNAc
# Procedure, shortened: as §1
# [26] = target: Fuc(a1-2)[GalNAc(a1-3)]Gal(b1-3)GlcNAc(b1-2)Man(a1-3)[Fuc(a1-2)[GalNAc(a1-3)]Gal(b1-3)GlcNAc(b1-2)Man(a1-6)]Man(b1-4)GlcNAc(b1-4)GlcNAc
# Procedure, shortened: as §1
# [27] = target: Fuc(a1-2)[GalNAc(a1-3)]Gal(b1-3)GlcNAc(b1-2)Man(a1-3)[Fuc(a1-2)[GalNAc(a1-3)]Gal(b1-3)GlcNAc(b1-2)Man(a1-6)]Man(b1-4)GlcNAc(b1-4)[Fuc(a1-6)]GlcNAc
# Procedure, shortened: as §1
# [28] = target: Fuc(a1-2)[GalNAc(a1-3)]Gal(b1-3)GlcNAc(b1-3)GalNAc
# Procedure, shortened: as §1
# [29] = target: Fuc(a1-2)[GalNAc(a1-3)]Gal(b1-3)GlcNAc(b1-6)GalNAc
# Procedure, shortened: as §1
# [30] = target: Fuc(a1-2)[GalNAc(a1-3)]Gal(b1-4)Glc
# Procedure, shortened: as §1
# [31] = target: Fuc(a1-2)[GalNAc(a1-3)]Gal(b1-4)GlcNAc
# Procedure, shortened: as §1
# [32] = target: Fuc(a1-2)[GalNAc(a1-3)]Gal(b1-4)GlcNAc(b1-2)Man
# Procedure, shortened: as §1
# [33] = target: Fuc(a1-2)[GalNAc(a1-3)]Gal(b1-4)GlcNAc(b1-2)Man(a1-3)[Fuc(a1-2)[GalNAc(a1-3)]Gal(b1-4)GlcNAc(b1-2)Man(a1-6)]Man(b1-4)GlcNAc(b1-4)GlcNAc
# Procedure, shortened: as §1
# [34] = target: Fuc(a1-2)[GalNAc(a1-3)]Gal(b1-4)GlcNAc(b1-2)Man(a1-3)[Fuc(a1-2)[GalNAc(a1-3)]Gal(b1-4)GlcNAc(b1-2)Man(a1-6)]Man(b1-4)GlcNAc(b1-4)[Fuc(a1-6)]GlcNAc
# Procedure, shortened: as §1
# [35] = target: Fuc(a1-2)[GalNAc(a1-3)]Gal(b1-4)GlcNAc(b1-3)Gal(b1-4)GlcNAc
# Procedure, shortened: as §1
# [36] = target: Fuc(a1-2)[GalNAc(a1-3)]Gal(b1-4)GlcNAc(b1-3)Gal(b1-4)GlcNAc(b1-3)Gal(b1-4)GlcNAc
# Procedure, shortened: as §1
# [37] = target: Fuc(a1-2)[GalNAc(a1-3)]Gal(b1-4)GlcNAc(b1-3)GalNAc
# Procedure, shortened: as §1
# [38] = target: Fuc(a1-2)[GalNAc(a1-3)]Gal(b1-4)GlcNAc(b1-3)[Fuc(a1-2)[GalNAc(a1-3)]Gal(b1-4)GlcNAc(b1-6)]GalNAc
# Procedure, shortened: as §1
# [39] = target: Fuc(a1-2)[GalNAc(a1-3)]Gal(b1-4)GlcNAc(b1-6)GalNAc
# Procedure, shortened: as §1
# [40] = target: Fuc(a1-2)[GalNAc(a1-3)]Gal(b1-4)[Fuc(a1-3)]GlcNAc
# Procedure, shortened: as §1
# [41] = target: Fuc(a1-2)[GalNAc(a1-3)]Gal(b1-4)[Fuc(a1-3)]GlcNAc(b1-3)GalNAc
# Procedure, shortened: as §1
# [42] = target: Fuc(a1-2)[GalNAc(a1-4)]Gal(b1-4)GlcNAc
# Procedure, shortened: as §1
# [43] = target: Fuc(a1-2)[GalNAc(b1-3)]Gal
# Procedure, shortened: as §1
binder,measurement,setting,value
LngA (Escherichia coli) (protein) MLSVYNRTQKFKAEARKKIAKYHELRKQRGMSLLEVIIVLGIIGTIAAGVVILAQRAFDSRAVTDLVTNTNTVRVRMKDAYQRDGKYPDFVDPLSLTANTIKTDTSGIPAAQLVQLGKITPDEVRNNISGDFIAIGGALTSNGAQVKKGFAIELNGLSQEQCRSILGQVGNNWEYVAIGTSASGSYAMTATGVDMSVAASTTVLRSLGNNGQTTLTADKILSTCTAQVNSITLGSR,glycan array binding signal (z-score),[1],0.694
same,glycan array binding signal (z-score),Fuc(a1-2)Gal6S(b1-4)Glc,-0.333
same,glycan array binding signal (z-score),[2],0.398
same,glycan array binding signal (z-score),Fuc(a1-2)[Gal(a1-3)]Gal,-0.307
same,glycan array binding signal (z-score),[3],-0.382
same,glycan array binding signal (z-score),[4],-0.264
same,glycan array binding signal (z-score),[5],1.83
same,glycan array binding signal (z-score),[6],-0.509
same,glycan array binding signal (z-score),[7],-0.231
same,glycan array binding signal (z-score),[8],-0.248
same,glycan array binding signal (z-score),[9],-0.18
same,glycan array binding signal (z-score),[10],-0.151
same,glycan array binding signal (z-score),[11],-0.379
same,glycan array binding signal (z-score),[12],-0.429
same,glycan array binding signal (z-score),[13],-0.19
same,glycan array binding signal (z-score),[14],-0.216
same,glycan array binding signal (z-score),[15],-0.306
same,glycan array binding signal (z-score),[16],-0.197
same,glycan array binding signal (z-score),[17],1.27
same,glycan array binding signal (z-score),[18],-0.596
same,glycan array binding signal (z-score),[19],-0.274
same,glycan array binding signal (z-score),[20],-0.252
same,glycan array binding signal (z-score),[21],-0.374
same,glycan array binding signal (z-score),[22],-0.472
same,glycan array binding signal (z-score),[23],-0.453
same,glycan array binding signal (z-score),[24],-0.408
same,glycan array binding signal (z-score),[25],-0.508
same,glycan array binding signal (z-score),[26],-0.385
same,glycan array binding signal (z-score),[27],-0.517
same,glycan array binding signal (z-score),[28],-0.284
same,glycan array binding signal (z-score),[29],-0.555
same,glycan array binding signal (z-score),[30],-0.517
same,glycan array binding signal (z-score),[31],-0.55
same,glycan array binding signal (z-score),[32],-0.403
same,glycan array binding signal (z-score),[33],-0.537
same,glycan array binding signal (z-score),[34],-0.215
same,glycan array binding signal (z-score),[35],-0.078
same,glycan array binding signal (z-score),[36],-0.381
same,glycan array binding signal (z-score),[37],-0.131
same,glycan array binding signal (z-score),[38],-0.252
same,glycan array binding signal (z-score),[39],-0.343
same,glycan array binding signal (z-score),[40],0.625
same,glycan array binding signal (z-score),[41],0.112
same,glycan array binding signal (z-score),[42],-0.513
same,glycan array binding signal (z-score),[43],-0.244
